T1: BCMA on H929 cells (Homo sapiens, UniProt Q02223, N81S)
T1 construct: host or cells: H929
T1 sequence (Q02223 1-184 N81S): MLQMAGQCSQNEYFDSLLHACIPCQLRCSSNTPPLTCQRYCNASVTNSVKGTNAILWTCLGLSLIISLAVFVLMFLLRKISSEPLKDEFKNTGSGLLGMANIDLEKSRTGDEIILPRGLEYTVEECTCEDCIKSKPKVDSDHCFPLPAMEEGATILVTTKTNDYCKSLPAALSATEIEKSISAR

B1: Ab-22: 2A1 mutein, heavy chain SEQ ID NO:292, light chain SEQ ID NO:288 (antibody)
heavy: EVQLVESGGGLVKPGRSLRLSCTASGFTFGDYALSWFRQAPGKGLEWVGVSRSKAYGGTTDYAASVKGRFTISRDNSKSFAYLQMNSLKTEDTAVYYCTSSGYSSGWTPFDYWGQGTLVTVSS[omitted - human IgG1 constant region]
light: QSVLTQPPSASGTPGQRVTISCSGSSSNIGSNTVNWYQQLPGTAPKLLIFNYHQRPSGVPDRFSGSKSGSSASLAISGLQSEDEADYYCAAWDDSLNGWVFGGGTELTVLGQPKAAPSVTLFPPSSEELQANKATLVCLISDFYPGAVTVAWKADSSPVKAGVETTTPSKQSNNKYAASSYLSLTPEQWKSHRSYSCQVTHEGSTVEKTVAPTECS
B2: Ab-23: 2A1 mutein, heavy chain SEQ ID NO:293, light chain SEQ ID NO:288 (antibody)
heavy: EVQLVESGGGLVKPGRSLRLSCTASGFTFGDYALSWFRQAPGKGLEWVGVSRSKAYGGTTDYAASVKGRFTISRDDSKSTAYLQMNSLKTEDTAVYYCTSSGYSSGWTPFDYWGQGTLVTVSS[omitted - human IgG1 constant region]
light: QSVLTQPPSASGTPGQRVTISCSGSSSNIGSNTVNWYQQLPGTAPKLLIFNYHQRPSGVPDRFSGSKSGSSASLAISGLQSEDEADYYCAAWDDSLNGWVFGGGTELTVLGQPKAAPSVTLFPPSSEELQANKATLVCLISDFYPGAVTVAWKADSSPVKAGVETTTPSKQSNNKYAASSYLSLTPEQWKSHRSYSCQVTHEGSTVEKTVAPTECS
B3: Ab-24: 2A1 mutein, heavy chain SEQ ID NO:294, light chain SEQ ID NO:288 (antibody)
heavy: EVQLVESGGGLVKPGRSLRLSCTASGFTFGDYALSWFRQAPGKGLEWVGVSRSKAYGGTTDYAASVKGRFTISRDDSKSFAYLQMNSLKTEDTAVYYCASSGYSSGWTPFDYWGQGTLVTVSS[omitted - human IgG1 constant region]
light: QSVLTQPPSASGTPGQRVTISCSGSSSNIGSNTVNWYQQLPGTAPKLLIFNYHQRPSGVPDRFSGSKSGSSASLAISGLQSEDEADYYCAAWDDSLNGWVFGGGTELTVLGQPKAAPSVTLFPPSSEELQANKATLVCLISDFYPGAVTVAWKADSSPVKAGVETTTPSKQSNNKYAASSYLSLTPEQWKSHRSYSCQVTHEGSTVEKTVAPTECS
B4: Ab-25: 2A1 mutein, heavy chain SEQ ID NO:295, light chain SEQ ID NO:288 (antibody)
heavy: EVQLVESGGGLVKPGRSLRLSCTASGFTFGDYALSWFRQAPGKGLEWVGVSRSKAYGGTTDYAASVKGRFTISRDDSKSFAYLQMNSLKTEDTAVYYCTKSGYSSGWTPFDYWGQGTLVTVSS[omitted - human IgG1 constant region]
light: QSVLTQPPSASGTPGQRVTISCSGSSSNIGSNTVNWYQQLPGTAPKLLIFNYHQRPSGVPDRFSGSKSGSSASLAISGLQSEDEADYYCAAWDDSLNGWVFGGGTELTVLGQPKAAPSVTLFPPSSEELQANKATLVCLISDFYPGAVTVAWKADSSPVKAGVETTTPSKQSNNKYAASSYLSLTPEQWKSHRSYSCQVTHEGSTVEKTVAPTECS
B5: Ab-28: 2A1 mutein, heavy chain SEQ ID NO:298, light chain SEQ ID NO:288 (antibody)
heavy: EVQLVESGGGLVKPGRSLRLSCAASGFTFGDYALSWFRQAPGKGLEWVGVSRSKAYGGTTDYAASVKGRFTISRDDSKSTAYLQMNSLKTEDTAVYYCTSSGYSSGWTPFDYWGQGTLVTVSS[omitted - human IgG1 constant region]
light: QSVLTQPPSASGTPGQRVTISCSGSSSNIGSNTVNWYQQLPGTAPKLLIFNYHQRPSGVPDRFSGSKSGSSASLAISGLQSEDEADYYCAAWDDSLNGWVFGGGTELTVLGQPKAAPSVTLFPPSSEELQANKATLVCLISDFYPGAVTVAWKADSSPVKAGVETTTPSKQSNNKYAASSYLSLTPEQWKSHRSYSCQVTHEGSTVEKTVAPTECS
B6: Ab-31: 2A1 mutein, heavy chain SEQ ID NO:301, light chain SEQ ID NO:288 (antibody)
heavy: EVQLVESGGGLVKPGRSLRLSCTASGFTFGDYALSWVRQAPGKGLEWVGVSRSKAYGGTTDYAASVKGRFTISRDDSKSTAYLQMNSLKTEDTAVYYCASSGYSSGWTPFDYWGQGTLVTVSS[omitted - human IgG1 constant region]
light: QSVLTQPPSASGTPGQRVTISCSGSSSNIGSNTVNWYQQLPGTAPKLLIFNYHQRPSGVPDRFSGSKSGSSASLAISGLQSEDEADYYCAAWDDSLNGWVFGGGTELTVLGQPKAAPSVTLFPPSSEELQANKATLVCLISDFYPGAVTVAWKADSSPVKAGVETTTPSKQSNNKYAASSYLSLTPEQWKSHRSYSCQVTHEGSTVEKTVAPTECS
B7: Ab-32: 2A1 mutein, heavy chain SEQ ID NO:302, light chain SEQ ID NO:288 (antibody)
heavy: EVQLVESGGGLVKPGRSLRLSCAASGFTFGDYALSWVRQAPGKGLEWVGVSRSKAYGGTTDYAASVKGRFTISRDDSKSTAYLQMNSLKTEDTAVYYCASSGYSSGWTPFDYWGQGTLVTVSS[omitted - human IgG1 constant region]
light: QSVLTQPPSASGTPGQRVTISCSGSSSNIGSNTVNWYQQLPGTAPKLLIFNYHQRPSGVPDRFSGSKSGSSASLAISGLQSEDEADYYCAAWDDSLNGWVFGGGTELTVLGQPKAAPSVTLFPPSSEELQANKATLVCLISDFYPGAVTVAWKADSSPVKAGVETTTPSKQSNNKYAASSYLSLTPEQWKSHRSYSCQVTHEGSTVEKTVAPTECS
B8: 2A1 S108R: 2A1 mutein S108R (antibody)
heavy: EVQLVESGGGLVKPGRSLRLSCTASGFTFGDYALSWFRQAPGKGLEWVGVSRSKAYGGTTDYAASVKGRFTISRDDSKSFAYLQMNSLKTEDTAVYYCCRSGYSSGWTPFDYWGQGTLVTVSS[omitted - human IgG1 constant region]
light: QSVLTQPPSASGTPGQRVTISCSGSSSNIGSNTVNWYQQLPGTAPKLLIFNYHQRPSGVPDRFSGSKSGSSASLAISGLQSEDEADYYCAAWDDSLNGWVFGGGTELTVLGQPKAAPSVTLFPPSSEELQANKATLVCLISDFYPGAVTVAWKADSSPVKAGVETTTPSKQSNNKYAASSYLSLTPEQWKSHRSYSCQVTHEGSTVEKTVAPTECS

system: not listed separately; experiment: Differential Scanning Calorimetry (DSC) thermostability; type: physicochemical; details: not given
From the text: Differential Scanning calorimetry (DSC) was used to compare the thermostability of parent and engineered antibodies. DSC is a thermodynamical tool for direct assessment of the heat energy uptake, which occurs in a sample within a regulated increase or decrease in temperature. DSC is commonly employed to assess the thermal and conformational stability of a protein. The melting temperature of a protein, or of individual domains, can be obtained from the DSC profile, and if the reaction is reversible the thermodynamic parameters of the unfolding can be determined. A protein is considered more thermostable when the Tm (transition temperature) is higher. When thermostability data are compared to other bioanalytical methods, like size exclusion chromatography (SEC), it has been observed that a correlation between greater thermostability (higher Tm) and decreased aggregation. Antibodies with a higher Tm and decreased aggregation formation have the potential for improved long-term stability thus potentially making better biotherapeutics.
DSC was carried out using a MicroCal™ VP-Capillary DSC system (GE Healthcare, Piscataway, N.J.) equipped with an auto-sampler. The temperature differences between the reference and sample cells are continuously measured, and calibrated to power units. For example, the full-length antibodies shown in TABLE 10 were diluted to 0.5 mg/mL in a buffered solution. The solution reference and protein samples were measured in a 135 μL cell from 20 to 110° C. at a heating rate of 60° C./hour. The pre-scan was set at 15 minutes while the filtering period was 10 seconds. Signal from the blank buffer solution was used for baseline subtraction. The data analysis was performed using MicroCal™ Origin 7 software. Heat capacity during protein melting was calculated by normalizing over protein concentration.

| Molecule | Tm1 | Tm3 | Tm2 |
| --- | --- | --- | --- |
| B1 | 68.6 °C | 83.6 °C | – |
| B2 | 68.4 °C | 83.7 °C | 76.2 °C |
| B3 | 69.4 °C | 84.3 °C | – |
| B4 | 65.7 °C | 83.2 °C | 76.2 °C |
| B5 | 70.8 °C | 83.7 °C | – |
| B6 | 73.2 °C | 83.7 °C | – |
| B7 | 67.9 °C | 83.8 °C | 76.2 °C |

target: T1, BCMA on H929 cells; experiment: FACS binding to native BCMA on H929 myeloma cells; details: flow cytometry
Protocol: Approximately 10 to 40×10^6 of H929 myeloma cells were resuspended in a staining solution (2% goat serum, 1% rabbit serum, 0.02% azide in PBS) and aliquoted into round-bottom, 96-well plate (Corning Incorp., Acton, Mass.) as per the experiment design. The cells were incubated at 4 degrees celsius for 30 minutes to block non-specific sites. The antibodies were titrated into the staining solution. The cells were rinsed in a rinse solution (PBS+0.02% azide) by resuspending the cells in 200 ul/well. The cells were centrifuged at 1500 rpm at 4 degrees celsius for 7 minutes. The rinse solution was removed and the rinse step was repeated. […] The cells/antibodies were rinsed as described above to remove excess/unbound antibody. After the last rinse, the cells were resuspended in 200 ul of rinse solution with a drop of staining solution added to keep the cells from aggregating.
The antibodies were tested for binding to BCMA endogenously-expressed on a variety of cells, including the H929 cell line, which were developed from B-lymphocytes from a myeloma/plasmacytoma patient (ATCC, Manassa, Va.) using standard FACs techniques. Reagents were prepared using standard methods: 500 mL FACs buffer (PBS, 1% BSA, 5 mM EDTA, 0.02% NaN3), and FACs Block Buffer (30 mL FACs buffer, 5% Normal Rabbit Serum, 5% Normal Human Serum). […] The cell volumes were adjusted to bring all volumes up to 1 mL/tube w/ FACs buffer. The cells were centrifuged at 4° C. for 10 minutes at 1200 rpm. The supernatants were removed and the cell pellets were resuspended in 100 uL of FACs Block Buffer per tube. The cells were incubated for 30 to 60 minutes on ice. The BCMA antibodies were prepared by making premixes of 1:3 serial dilutions of antibodies in FACS Block Buffer starting at 10 ug/ml antibody (for example) in a final volume of 100 ul. The blocked cells were centrifuged at 4° C. for 10 minutes at 1200 rpm. The supernatants were removed and the cell pellets were resuspended in 100 uL of FACs Block Buffer containing the BCMA antibodies. The cells were incubated for 60 minutes on ice. After incubation, 1 mL of cold FACs Block Buffer was added to each tube. The cells were centrifuged at 4° C. for 10 minutes at 1200 rpm. […] After incubation, 1 mL of cold FACs Block Buffer was added to each tube. The cells were centrifuged at 4° C. for 10 minutes at 1200 rpm. […] After incubation, 1 mL of cold FACs Block Buffer was added to each tube. The cells were centrifuged at 4° C. for 10 minutes at 1200 rpm. The supernatants were removed and the cell pellets were resuspended in 0.2 mL/tube 4% paraformaldehyde in PBS and analyzed by flow cytometry

| Molecule | binding to BCMA on H929 cells relative to parental 2A1 |
| --- | --- |
| B8 | comparable binding |
